# From the supplement of paper PMC7826260
# The list shows a part of the results. Viral Rep nickase domains cut single-stranded DNA in vitro for 1 h at 37 °C with 3 µM enzyme; only the middle of the 90-letter strands is printed. Values are log2 of uncut reads against the no-enzyme pool; more negative means more cut, near 0 not cut, and no call is made. The scaling is to total reads; uncut strands gain when others are lost, and binding without cutting may add a little.
# System: T1, Rep nickase domain of maize striate mosaic virus
# T1 sequence (protein, residues 1-117, tag omitted): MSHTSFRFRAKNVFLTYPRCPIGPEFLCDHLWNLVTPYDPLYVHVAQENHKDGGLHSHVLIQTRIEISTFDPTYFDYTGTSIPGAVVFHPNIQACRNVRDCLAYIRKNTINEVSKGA
# Test: uncleaved DNA left, log2 of reads against the no-enzyme library (log2 ratio); higher = less cleavage (more negative = more Rep cleavage of the k-mer); sequences stand for … in CTCGTCCG…ACCGGAGA
# Experimental: (§1)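 A pool of 90-nt single-stranded DNAs with seven random bases just before the constant AC of the nick site (name = the seven bases) was cut by 3 µM recombinant His6-SUMO-tagged Rep nickase domain (300 nM DNA, 50 mM HEPES pH 8.0, 50 mM NaCl, 1 mM MnCl2, 1 h, 37 °C, three replicates). Uncut DNA was amplified and sequenced.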
row,Sequence,uncleaved DNA left (log2)
1,AGGCAAC,0.369
2,TATATTT,-0.369
3,TCTCGCG,-0.77
4,GTGCCTA,1.72
5,GACACAG,-0.676
6,TGTGACA,1.84
7,TCGTCGT,-0.995
8,CCCATTC,-1.05
9,TTTTATT,-0.574
10,ATTAGAG,-1.12
11,GTGGTCT,1.92
12,AGTATAT,0.294
13,CGAGTCC,0.028
14,TCCAATT,-0.504
15,AAGGCGA,-0.936
16,TCAGAGT,-0.0654
17,TTGCTGG,-0.604
18,TAGCTAT,0.387
19,TATAAGA,-1.07
20,AGTGTGT,-0.564

row,Sequence,uncleaved DNA left (log2)
1,GGTATCG,-0.655
2,CGAGTAG,-0.598
3,TCGTTCT,-0.494
4,TGAATAC,0.767
5,CCAATTG,-1.07
6,ATCAGTG,-0.98
7,TTGCGGA,-0.964
8,TTGTCAG,-0.536
9,AGGGCTA,1.4
10,TAGCGGT,-0.236
11,ATGTGTT,0.427
12,CCTGAAA,-0.493
13,TTTCTCT,-0.224
14,GGTCTCC,0.83
15,TGTAAGG,1.52
16,GCAGTCA,-0.119
17,AAGATAT,1.52
18,AGATTAT,0.0328
19,GCAGTGC,-0.784
20,GCGTCAC,0.408

# System: T2, Rep nickase domain of porcine circovirus 2
# T2 sequence (protein, residues 2-116, tag omitted): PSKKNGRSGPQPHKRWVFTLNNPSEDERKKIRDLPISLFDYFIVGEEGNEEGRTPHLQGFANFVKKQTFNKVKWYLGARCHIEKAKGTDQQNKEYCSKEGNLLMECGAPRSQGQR
# Test: as above
# Experimental: as §1
row,Sequence,uncleaved DNA left (log2)
1,AGGCAAC,0.0869
2,TATATTT,-3.42
3,TCTCGCG,0.189
4,GTGCCTA,0.00255
5,GACACAG,0.184
6,TGTGACA,0.156
7,TCGTCGT,-0.884
8,CCCATTC,0.0736
9,TTTTATT,-3.81
10,ATTAGAG,0.19
11,GTGGTCT,0.00605
12,AGTATAT,-3.25
13,CGAGTCC,-0.0714
14,TCCAATT,-0.684
15,AAGGCGA,-0.0262
16,TCAGAGT,0.192
17,TTGCTGG,0.191
18,TAGCTAT,-3.19
19,TATAAGA,-0.0452
20,AGTGTGT,-2.74

row,Sequence,uncleaved DNA left (log2)
1,GGTATCG,-0.0264
2,CGAGTAG,0.0945
3,TCGTTCT,-3.21
4,TGAATAC,0.0285
5,CCAATTG,0.164
6,ATCAGTG,0.15
7,TTGCGGA,0.138
8,TTGTCAG,0.218
9,AGGGCTA,0.157
10,TAGCGGT,-2.03
11,ATGTGTT,-3.55
12,CCTGAAA,0.0461
13,TTTCTCT,-0.328
14,GGTCTCC,0.0953
15,TGTAAGG,0.00699
16,GCAGTCA,0.0338
17,AAGATAT,-2.85
18,AGATTAT,-1.54
19,GCAGTGC,0.0711
20,GCGTCAC,0.073

# System: T3, Rep nickase domain of tomato golden mosaic virus
# T3 sequence (protein, residues 1-124, tag omitted): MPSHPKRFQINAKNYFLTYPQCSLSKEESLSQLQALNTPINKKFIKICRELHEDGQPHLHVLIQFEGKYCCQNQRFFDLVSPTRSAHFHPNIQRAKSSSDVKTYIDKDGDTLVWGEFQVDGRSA
# Test: as above
# Experimental: as §1
row,Sequence,uncleaved DNA left (log2)
1,AGGCAAC,0.042
2,TATATTT,-0.157
3,TCTCGCG,-0.118
4,GTGCCTA,0.0796
5,GACACAG,0.0965
6,TGTGACA,0.0284
7,TCGTCGT,-0.157
8,CCCATTC,-0.0978
9,TTTTATT,-0.886
10,ATTAGAG,0.045
11,GTGGTCT,0.0572
12,AGTATAT,0.134
13,CGAGTCC,0.0208
14,TCCAATT,0.014
15,AAGGCGA,-0.0946
16,TCAGAGT,0.0495
17,TTGCTGG,0.0394
18,TAGCTAT,-0.0763
19,TATAAGA,0.0401
20,AGTGTGT,-0.0161

row,Sequence,uncleaved DNA left (log2)
1,GGTATCG,-0.0606
2,CGAGTAG,-0.0427
3,TCGTTCT,-0.182
4,TGAATAC,0.124
5,CCAATTG,-0.00865
6,ATCAGTG,0.108
7,TTGCGGA,-0.0209
8,TTGTCAG,0.0924
9,AGGGCTA,0.0875
10,TAGCGGT,-0.0308
11,ATGTGTT,-0.0107
12,CCTGAAA,0.174
13,TTTCTCT,-0.0371
14,GGTCTCC,-0.0686
15,TGTAAGG,0.000891
16,GCAGTCA,0.0274
17,AAGATAT,0.101
18,AGATTAT,0.07
19,GCAGTGC,0.00502
20,GCGTCAC,-0.0499

# System: T4, Rep nickase domain of tomato yellow leaf curl virus
# T4 sequence (protein, residues 1-136, tag omitted): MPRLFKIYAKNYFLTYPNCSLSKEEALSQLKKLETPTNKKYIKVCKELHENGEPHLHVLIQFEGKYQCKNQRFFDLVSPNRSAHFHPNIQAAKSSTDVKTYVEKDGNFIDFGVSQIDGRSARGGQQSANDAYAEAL
# Test: as above
# Experimental: as §1
row,Sequence,uncleaved DNA left (log2)
1,AGGCAAC,0.148
2,TATATTT,0.0399
3,TCTCGCG,-0.116
4,GTGCCTA,0.091
5,GACACAG,0.0468
6,TGTGACA,0.144
7,TCGTCGT,-0.109
8,CCCATTC,-0.0582
9,TTTTATT,-0.0571
10,ATTAGAG,-0.0139
11,GTGGTCT,-0.0746
12,AGTATAT,0.0522
13,CGAGTCC,0.084
14,TCCAATT,0.0903
15,AAGGCGA,-0.0911
16,TCAGAGT,0.107
17,TTGCTGG,0.101
18,TAGCTAT,-0.00519
19,TATAAGA,-0.0398
20,AGTGTGT,0.0323

row,Sequence,uncleaved DNA left (log2)
1,GGTATCG,-0.0537
2,CGAGTAG,-0.0746
3,TCGTTCT,0.0433
4,TGAATAC,-0.0528
5,CCAATTG,-0.0458
6,ATCAGTG,-0.00822
7,TTGCGGA,0.162
8,TTGTCAG,0.155
9,AGGGCTA,-0.0408
10,TAGCGGT,-0.0854
11,ATGTGTT,-0.0346
12,CCTGAAA,0.122
13,TTTCTCT,-0.00268
14,GGTCTCC,0.0773
15,TGTAAGG,-0.127
16,GCAGTCA,0.000182
17,AAGATAT,-0.0914
18,AGATTAT,-0.00927
19,GCAGTGC,0.204
20,GCGTCAC,0.0897

# System: T5, Rep nickase domain of wheat dwarf virus
# T5 sequence (protein, residues 1-137, tag omitted): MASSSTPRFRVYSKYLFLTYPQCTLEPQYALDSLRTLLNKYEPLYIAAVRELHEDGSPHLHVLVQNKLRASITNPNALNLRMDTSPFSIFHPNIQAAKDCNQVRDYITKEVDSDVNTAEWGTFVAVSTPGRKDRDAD
# Test: as above
# Experimental: as §1
row,Sequence,uncleaved DNA left (log2)
1,AGGCAAC,0.0548
2,TATATTT,-0.512
3,TCTCGCG,-0.0483
4,GTGCCTA,0.205
5,GACACAG,0.13
6,TGTGACA,0.206
7,TCGTCGT,-0.0317
8,CCCATTC,-0.0479
9,TTTTATT,-2.17
10,ATTAGAG,0.0503
11,GTGGTCT,-0.0275
12,AGTATAT,0.0604
13,CGAGTCC,0.033
14,TCCAATT,0.0939
15,AAGGCGA,-0.0395
16,TCAGAGT,0.176
17,TTGCTGG,0.0302
18,TAGCTAT,-0.091
19,TATAAGA,-0.0515
20,AGTGTGT,-0.00564

row,Sequence,uncleaved DNA left (log2)
1,GGTATCG,-0.163
2,CGAGTAG,-0.088
3,TCGTTCT,-0.181
4,TGAATAC,0.0746
5,CCAATTG,-0.0264
6,ATCAGTG,-0.052
7,TTGCGGA,-0.0566
8,TTGTCAG,0.0354
9,AGGGCTA,0.114
10,TAGCGGT,-0.0705
11,ATGTGTT,-0.276
12,CCTGAAA,0.129
13,TTTCTCT,-0.0451
14,GGTCTCC,-0.00577
15,TGTAAGG,-0.0318
16,GCAGTCA,0.0662
17,AAGATAT,0.112
18,AGATTAT,0.191
19,GCAGTGC,0.0181
20,GCGTCAC,0.196
